These results are taken from PMC12820563.

The list shows a part of the results. The list includes weakly bound sequences.

The test concerns the target T1, MBP-FoxP3dN (UniProt Q99JB6).
T1 sequence: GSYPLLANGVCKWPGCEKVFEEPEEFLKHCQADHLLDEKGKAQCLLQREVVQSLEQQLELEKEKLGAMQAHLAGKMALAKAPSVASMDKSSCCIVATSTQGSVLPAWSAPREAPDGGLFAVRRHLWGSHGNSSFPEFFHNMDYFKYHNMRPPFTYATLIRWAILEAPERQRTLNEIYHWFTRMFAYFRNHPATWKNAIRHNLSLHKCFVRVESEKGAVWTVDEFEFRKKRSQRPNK
Nature of the test: PD-seq (MBP pull-down with sequencing). Conditions: 20 mM Tris-HCl pH 7.5, 100 mM NaCl, 1.5 mM MgCl2, 0.4 uM protein, 0.1 uM dsDNA library, 30 min, room temperature, amylose pull-down; high values mean tight binding; double strand, one strand shown.
For the sequence “GATGATTGTTCTCCCAGCTGATGAATTGTACACATCGAGTAAACAAATTTTCCTAATCTTTCTGTTCAAGCGCCATCTAC”, the binding signal (RPM ratio (pull-down/input)) stood at 1.75.
With “GATGATTGTTCTCCCAGCTGATGAATTCTATATATCGAGTAAACAAATTTTCCTAATCTTTCTGTTCAAGCGCCATCTAC” the figure was 1.18.
To “GATGATTGTTCTCCCAGCTGATGAATTCCGCGACTCGAGTAAACAAATTTTCCTAATCTTTCTGTTCAAGCGCCATCTAC” belongs 1.91.
With “GATGATTGTTCTCCCAGCTGATGAATTGTTGTGATCGAGTAAACAAATTTTCCTAATCTTTCTGTTCAAGCGCCATCTAC” the figure was 6.31.
Consider “GATGATTGTTCTCCCAGCTGATGAATTTGGGACTTCGAGTAAACAAATTTTCCTAATCTTTCTGTTCAAGCGCCATCTAC”, for which the binding signal (RPM ratio (pull-down/input)) amounted to 0.537.
For “GATGATTGTTCTCCCAGCTGATGAATTGGATGCTTCGAGTAAACAAATTTTCCTAATCTTTCTGTTCAAGCGCCATCTAC”, the binding signal (RPM ratio (pull-down/input)) was found to be 1.6.
With “GATGATTGTTCTCCCAGCTGATGAATTTATTATATCGAGTAAACAAATTTTCCTAATCTTTCTGTTCAAGCGCCATCTAC” the figure was 2.18; with “GATGATTGTTCTCCCAGCTGATGAATTGCTAAGGTCGAGTAAACAAATTTTCCTAATCTTTCTGTTCAAGCGCCATCTAC”, 0.42; with “GATGATTGTTCTCCCAGCTGATGAATTGAATTCATCGAGTAAACAAATTTTCCTAATCTTTCTGTTCAAGCGCCATCTAC”, 0.482.
For “GATGATTGTTCTCCCAGCTGATGAATTCGTTCGCTCGAGTAAACAAATTTTCCTAATCTTTCTGTTCAAGCGCCATCTAC”, the binding signal (RPM ratio (pull-down/input)) was 0.308.
With “GATGATTGTTCTCCCAGCTGATGAATTAAGCGAGTCGAGTAAACAAATTTTCCTAATCTTTCTGTTCAAGCGCCATCTAC” the figure was 0.64; with “GATGATTGTTCTCCCAGCTGATGAATTCTATCTGTCGAGTAAACAAATTTTCCTAATCTTTCTGTTCAAGCGCCATCTAC”, 0.442.
“GATGATTGTTCTCCCAGCTGATGAATTTACTGCCTCGAGTAAACAAATTTTCCTAATCTTTCTGTTCAAGCGCCATCTAC”: the binding signal (RPM ratio (pull-down/input)) was determined as 0.763.
“GATGATTGTTCTCCCAGCTGATGAATTCGACGTATCGAGTAAACAAATTTTCCTAATCTTTCTGTTCAAGCGCCATCTAC”: the binding signal (RPM ratio (pull-down/input)) is 0.744.
To “GATGATTGTTCTCCCAGCTGATGAATTCTTTGAATCGAGTAAACAAATTTTCCTAATCTTTCTGTTCAAGCGCCATCTAC” belongs 0.231; to “GATGATTGTTCTCCCAGCTGATGAATTGGCTTAGTCGAGTAAACAAATTTTCCTAATCTTTCTGTTCAAGCGCCATCTAC”, 0.789.
For the sequence “GATGATTGTTCTCCCAGCTGATGAATTTATACGATCGAGTAAACAAATTTTCCTAATCTTTCTGTTCAAGCGCCATCTAC”, the binding signal (RPM ratio (pull-down/input)) was 0.494.
In the case of “GATGATTGTTCTCCCAGCTGATGAATTGTATGACTCGAGTAAACAAATTTTCCTAATCTTTCTGTTCAAGCGCCATCTAC”, the binding signal (RPM ratio (pull-down/input)) was determined as 0.793.
